According to the RNAGym collection of RNA variant scans (doi:10.7554/elife.90254):
Read counts are not given, so values of variants with three or more changes are uncertain.

B1: LINE1-mini (parent)
chain: GGCAGAGCUCAACACAGCGUGGCAAAGUGGCUGUGGCUAGACUGCC

Variants of: B1
Assay: self-cleavage, relative activity (ratio to wild type); higher = more cleavage; in vitro, sequencing; the parent is a self-cleaving ribozyme

Variant | self-cleavage
U9A G17A G30C U32G G36C | 0.02
C8U U38G C42U | 0.05
U9A G40A A41C C42U | 0.15
U9C A12G A14C C18A A24U G30U C37A | 0.03
U9A C15U A39G | 0
U9A A14U G17A A26G G44U | 0.08
U9C C31A C45G | 0.02
C8U G35U C42G | 0.02
U9A A12C C13U U20A A24C A26G U34G | 0.04
C8U U9G C15U C46U | 0.07
U9A G33U U43A | 0.33
U9G A11U U43A C46A | 0
U9G A14C C15U U28A A41C | 0.04
U9C C13U A16U G35C | 0.02
U9C U38G U43C | 0.01
U9C C10A C15G U38G | 0
U9A A12C G44C | 0.01
U9C A16C U20C | 0.03
U9G A12C U20G | 0.01
U9C A14C U32C | 0.03
U9G A24U C37G | 0.26

Variant | self-cleavage
C8U U9A A24U C37G | 0.02
U9A G27U A41C | 0.01
U9A U20C G21C | 0.05
U9A C18G A25G | 0.18
U9C G19A G44U | 0
U9C G27A G29A G30U U38C | 0.06
U9A G30U G40C | 0.04
C8U G30A G44A | 0.17
U9C A11G G27U | 0.03
U9G A12U C13U | 0.08
U9G A12C A25U G30U | 0.01
U9A C13G C15G | 0.02
U9G C10G A12C C13A G27U | 0
U9A G22U G27U G35C G36A G44C | 0.13
U9A G33A G40A | 0.05
U9C C13A G21C A24U | 0.02
U9C C23A G36C | 0.02
U9A A16U A25U G27C G30U G33C | 0.02
U9A G29U C37A | 0.39
U9C C10U A24U G35C | 0.02
C8U G35U A39C U43G C46U | 0.05

Variant | self-cleavage
U9C A14U C31U | 0.03
U9C C31U G35A | 0.1
U9A U20C A26G | 0.08
U9A G27C U32G A39C | 0.24
U9A G19C C46G | 0.18
U9C G27C G33A C37U | 0.03
U9A C18A C37U | 0.1
U9A C13A C18U G35C C45A | 0.11
U9A C18A A26U | 0.01
U9C A14G G17U | 0.02
U9C A24U C45A | 0.01
U9A C18U G19C U28A G40U | 0.05
U9C C31A U34C C42A C46U | 0
U9A C10U C18A C31A | 0.08
U9A G21A C42U | 0.67
U9A G22U C31G G44U C45U | 0.04
U9A A14G U38G | 0.12
U9C C31A G36U | 0.02
U9A C15U G19U | 0.35
U9A G27C U28A C37G G40C C46G | 0
U9C C10G G36A | 0.01

Variant | self-cleavage
U9C A41C C42G | 0.01
U9C G29A A39U | 0.09
U9C G21A A26U C37A | 0.03
U9G A16U G29U | 0.01
U9C G27U G33A | 0.05
U9G A25C C46U | 0.07
U9A C18A G30U | 0.1
U9C C15U A16U G30A | 0.01
U9C G21U G22C A25C G33U | 0.02
U9A C15U A41C | 0.03
U9G A16C C23U A41G | 0.02
U9C G21U G22U C45G | 0.01
U9A A12U A16U | 0.05
U9C A41G C46G | 0.01
U9G C10G G22U U34A G40C | 0
U9C G21A G36A G40A | 0.51
U9A U32A C42G | 0.16
U9A A14U G36C | 0.02
U9C C15G G17A G21A A41U | 0.02
U9G C13A C15U G27A C31G U38C C46A | 0.02
U9A G19U C37G | 0.04
